The record followed here is PubChem BioAssay AID488969 (Vanderbilt High Throughput Screening Facility, 2010).

SMILES strings stand for the structures. Over roughly 110,000 compounds, “z-score” has its median near -0.1; the highest 2% begin near 2. This is one part of the list.

In the assay the target is Metabotropic glutamate receptor 8 (Rattus norvegicus) (UniProt P70579). Nature of the assay: mGluR8 Gi/Go-coupled signaling modulation – cell-based, rat, thallium flux, HTS, primary screen (AID 488969). To be noted: HEK293 rat mGluR8, GIRK (G protein-gated inwardly rectifying potassium channel) thallium flux, FluoZin2; at 10 µM; stronger effect = higher value; submaximal glutamate (EC20) added with thallium.
UniProt P70579, sequence (P70579 whole entry, looked up): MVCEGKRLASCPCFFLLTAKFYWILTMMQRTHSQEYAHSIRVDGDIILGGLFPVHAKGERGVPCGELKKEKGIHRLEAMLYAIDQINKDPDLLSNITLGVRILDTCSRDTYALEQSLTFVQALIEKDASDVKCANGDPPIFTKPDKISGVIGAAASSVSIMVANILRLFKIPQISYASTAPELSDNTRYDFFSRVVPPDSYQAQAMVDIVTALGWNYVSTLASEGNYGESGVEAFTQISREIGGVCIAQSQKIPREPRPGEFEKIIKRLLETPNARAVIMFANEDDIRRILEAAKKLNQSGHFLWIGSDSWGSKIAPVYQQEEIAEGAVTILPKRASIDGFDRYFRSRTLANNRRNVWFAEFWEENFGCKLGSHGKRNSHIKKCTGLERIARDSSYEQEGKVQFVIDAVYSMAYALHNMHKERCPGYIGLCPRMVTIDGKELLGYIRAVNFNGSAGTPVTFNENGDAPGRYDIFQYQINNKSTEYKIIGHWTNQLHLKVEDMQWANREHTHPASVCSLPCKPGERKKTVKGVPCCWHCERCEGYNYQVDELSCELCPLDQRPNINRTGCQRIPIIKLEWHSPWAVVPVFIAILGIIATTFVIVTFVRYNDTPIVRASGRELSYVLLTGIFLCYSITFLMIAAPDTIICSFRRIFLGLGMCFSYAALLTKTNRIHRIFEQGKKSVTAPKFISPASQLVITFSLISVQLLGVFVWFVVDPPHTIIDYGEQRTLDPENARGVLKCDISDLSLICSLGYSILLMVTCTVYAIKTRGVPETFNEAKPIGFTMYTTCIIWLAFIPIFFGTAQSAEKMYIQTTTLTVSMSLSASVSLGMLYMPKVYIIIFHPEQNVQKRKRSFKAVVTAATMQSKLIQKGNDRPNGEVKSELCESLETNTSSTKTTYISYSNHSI
As to `O=C(CN1CCN(Cc2ccc(F)cc2Cl)C1=O)NCCc1ccccc1`, the z-score was -0.186. For `CCOC(=O)c1ccc(NS(=O)C23CC4CC(CC(C4)C2)C3)cc1` (stereo not drawn), the z-score was -0.789.

As to `CCOC(=O)c1nn(-c2ccc(C)cc2)c(=O)c2c(N)scc12`, the z-score was -0.401. To `Nc1nc(SCC(=O)NCCN2CCOCC2)nc2sc3c(c12)CCC3` belongs -0.356; to `O=C(CSc1ccc(-c2ccc(F)cc2)nn1)NCc1ccco1`, -0.746; to `CCOC(=O)C1=C(CN2CCCCC2)NC(=O)NC1c1cc(C)ccc1C` (stereo not drawn), -0.177.

Compound `Cc1ccc(C(=O)NCC2CCCO2)cc1[N+](=O)[O-]` (stereo not drawn) registered a z-score of 0.0557. To `Cc1cccc(-n2ccnc2SCC(=O)Nc2ccc3c(c2)OCCO3)c1` belongs -0.62; to `O=C(O)CN1C(=O)CC(Cc2ccccc2)C1=O` (stereo not drawn), 0.156; to `COC(=O)c1cc(NCc2c(F)cccc2Cl)ccc1N1CCOCC1`, -0.226. To `O=C(NC1CCS(=O)(=O)C1)c1cccc(S(=O)(=O)N2CCCCC2)c1` (stereo not drawn) belongs -0.566; to `COc1ccc(/C=N/NC(=O)c2cccc([N+](=O)[O-])c2)cc1OC(=O)c1ccc(C)cc1`, -0.203; to `COc1ccc(OC)c(-c2cn(S(=O)(=O)c3ccccc3)nc2N)c1`, -0.12. To `O=C(C=C1CCN(c2ncc(C(F)(F)F)cc2Cl)CC1)NNC(=O)Nc1ccc(Cl)cc1` belongs 0.178; to `CCC(C)(C(=O)NC1CCCC1)N(C(=O)c1cnccn1)c1c(C)n(C)n(-c2ccccc2)c1=O` (stereo not drawn), 0.652. Take `CC(=O)Nc1ccc(N2CCCCC2)cc1`: the z-score is -0.251. To `O=C(O)CSc1ncccc1C(=O)O` belongs -1.44; to `CC1(C)CC2(CCO1)OC(=O)CC2C(=O)Nc1cccc2ccccc12` (stereo not drawn), -0.378. The result for `O=C(O)CC(SCc1ccc(C(=O)O)o1)C(=O)O` (stereo not drawn) reads -0.0482; that for `Cn1c(=O)c2c(nc(CN3CCN(Cc4ccccc4)CC3)n2Cc2ccc(Cl)cc2)n(C)c1=O`, 0.453.

Turning to `O=C(COC(=O)c1ccc([N+](=O)[O-])o1)Nc1cccc(S(=O)(=O)N2CCOCC2)c1`, the z-score is -0.207. The result for `CCOC(=O)c1c(N)sc(-c2ccccc2)c1C` reads -0.229. `COCCCNCCOCCOc1ccc(Cl)cc1C(C)(C)C` had a z-score of 0.597. To `Cc1nn(-c2ccc(F)cc2)c2sc(C(=O)N3CCCCCC3)cc12` belongs -0.274; to `FC(F)(F)c1cc(NCc2cccs2)n2ncnc2n1`, 0.0172; to `OC(COc1c(F)cc(Br)cc1F)CN1CCN(c2ccc(F)cc2)CC1` (stereo not drawn), -0.815. `CC(C)CCOc1ccc(C(=O)O)cc1` displayed a z-score of -0.278. For the compound `CC(C)(Oc1ccc(Cl)cc1)C(=O)N1CCN(c2ccccn2)CC1`, the z-score is -0.0555. The result for `O=C(NO)c1ccc(C(=O)N(C2CCCCC2)C2CCCCC2)cc1` reads 0.41; that for `COCCNc1c([N+](=O)[O-])c(=O)n(-c2ccccc2)c2ccccc12`, -0.382; that for `O=C(CSc1cnc2ccccc2n1)NC1CCCC1`, -0.494. On to `COc1cc(CCC(=O)OCC(=O)Nc2nc(C)c(Cl)cc2Cl)cc(OC)c1OC`, for which the z-score was -0.356. To `O=C(NCC(=O)N(c1ccccc1)C(C(=O)NC1CCCC1)c1cccnc1)c1cccs1` (stereo not drawn) belongs -0.00843; to `COc1ccc(OC)c(CN2C(=O)CCC2(C)C(=O)NC2CCCCCC2)c1` (stereo not drawn), 1.12; to `CCn1c(SCC(=O)NC(C)(C)C)nnc1-c1ccoc1C`, 0.155. Take `O=C(Nc1ccc(Cl)cc1)c1cc2nc(C3CC3)cc(C(F)(F)F)n2n1`: the z-score is -0.433. To `CC(=O)C(C)Oc1cc(C)cc2oc(=O)c(C)c(C)c12` (stereo not drawn) belongs -0.115; to `CCOC(=O)c1cnn2c(C(F)(F)F)cc(-c3cn(C)nc3C)nc12`, -0.477; to `Cc1cc(NC(=O)CN2C(=O)NC(C)(c3ccccc3)C2=O)no1` (stereo not drawn), -0.0496.

`CC(=O)OCC(=O)Nc1ccc(N=Nc2ccccc2)cc1` had a z-score of 0.277. The result for `COCCSc1ccccc1C(=O)Nc1cc(C)ccn1` reads -0.869; that for `COc1cccc(/C=N/Nc2nc3ccccc3n3cnnc23)c1`, 0.123; that for `COC(=O)c1cc(NC(=O)CC2SC(=Nc3ccccc3)N(CCc3c[nH]c4ccccc34)C2=O)cc(C(=O)OC)c1` (stereo not drawn), -0.15.

The compound `Cc1nc(SCC(=O)OCc2ccccc2)c2c(=O)n(C)c(=O)n(C)c2n1` had a z-score of -0.454. As for `CCOc1cc(/C=C2/N=C(c3ccc(C(C)(C)C)cc3)OC2=O)cc(Cl)c1OS(C)(=O)=O`, the z-score is 1.16.

The compound `CCCc1cc(=O)n2c(nc3ccccc32)[nH]1` gave a z-score of -0.513.

Regarding `COc1cc(S(=O)(=O)N2CCOCC2)ccc1NC(=O)COC(=O)CC12CC3CC(CC(C3)C1)C2`, the z-score worked out at 0.016. The result for `CC(C)(Oc1ccc(Br)cc1)C(=O)N1CCc2ccccc21` reads 0.00475. Compound `COc1ccc(O)c(/C=N/NC(=O)c2ccc(CSc3nc(C)cc(C)n3)cc2)c1` registered a z-score of 0.0894. To `CC(/C=C1\N=C(SCc2ccccc2)SC1=O)=C\c1ccccc1` belongs 0.253. The result for `CC(=O)N1CCN(c2ccccc2NC(=O)COc2ccc(Br)cc2)CC1` reads -1.84; that for `CCOCCCNC(=O)c1c[nH]c2ccc(S(=O)(=O)Nc3cccc(OC)c3)cc2c1=O`, -0.206. To `CN(CCOC(=O)C1c2ccccc2Oc2ccccc21)C(C)(C)C` belongs 0.442; to `Cc1ccc(C2CC(c3ccc(C)cc3)n3nc(N)nc3N2)cc1` (stereo not drawn), 0.716; to `COc1ccc2c3c(cccc13)C(=O)N(O)C2=O`, -0.149.

Turning to `CN(C)S(=O)(=O)N1CCN(CC(=O)Nc2cc(Cl)ccc2Cl)CC1`, the z-score came to 0.48. To `Cc1c(C)n(C(=O)CSc2nc3ccccc3[nH]2)c2ccccc12` belongs 0.855; to `Cc1ccc(C(=O)N/C(=C/c2ccc(Cl)cc2)C(=O)Nc2cccc(C(=O)O)c2)cc1`, 0.19; to `COc1ccc(OC)c(C2=NO[C@@H]3C(=O)N(c4cc(Cl)ccc4OC)C(=O)[C@H]23)c1`, -0.133. To `CC(=O)NC(Cc1ccc(F)cc1)C(=O)N1CCN(C(=O)NCc2ccccc2)CC1` (stereo not drawn) belongs -0.086. The compound `CCC(C)OC(=O)C1=C(C)NC(=O)NC1c1ccc(F)cc1` (stereo not drawn) had a z-score of -0.184. As to `Cc1cccc(N2CC(C(=O)OCC(=O)c3ccc(OC(=O)c4cccs4)cc3)CC2=O)c1C` (stereo not drawn), the z-score is -0.149.

The compound `COc1ccc(OCC(=O)NC(=S)N2CCCc3ccccc32)cc1` returned a z-score of 1.72. The result for `Cc1cccc(NC(=O)NNC(=O)c2nn(C)cc2Br)c1` reads -0.174; that for `NC(=O)CSc1nnc(CNc2ccc(F)cc2)n1CC1CCCO1` (stereo not drawn), -0.378. In the case of `CCN1CCN(CC(O)COc2ccc3c(c2)CCC3)CC1` (stereo not drawn), the z-score was -0.0762.

The compound `CCOC(=O)C1CCN(c2nc3ccccc3nc2C(C#N)C(=O)NCCc2ccccc2)CC1` (stereo not drawn) returned a z-score of -0.159. The result for `CCCN(N=Nc1cccc([N+](=O)[O-])c1)c1cccc([N+](=O)[O-])c1` reads 0.00417.

Take `O=C1C2ON(c3ccc(Cl)cc3)C(c3ccco3)C2C(=O)N1c1ccccc1` (stereo not drawn): the z-score is -0.114. On to `Cc1cccc(-n2c(-c3csc(C)c3C)n[nH]c2=S)c1`, for which the z-score was determined as 0.00757. To `O=C1NC2(CCCCC2)Oc2ccccc21` belongs 1.88. The result for `Cc1sc(NC(=O)c2ccccc2)c(C(=O)NC(C)C)c1C` reads 0.145; that for `O=C(Nc1ccccc1C(=O)N/N=C/c1ccco1)c1ccccc1Cl`, 0.924. To `O=C(O)COc1ccc2occ(C(=O)c3ccccc3)c2c1` belongs -0.673. `COC(=O)NNC(=S)NCc1ccccc1` had a z-score of -0.238. For `O=C(NCCCN1CCCC1)c1cccc(N2CCCC2=O)c1`, the z-score was found to be 0.317.

With `CCNC(=O)C(Sc1ccccc1)c1ccccc1` (stereo not drawn), the z-score worked out at 0.00762. In turn, `Cc1ccc(NC(=O)C(=O)NNC(=O)c2ccccc2C)cc1Cl` registered a z-score of -0.171.

The compound `COc1ccccc1N(C(C)=O)c1nc(C)cc(C)c1C#N` yielded a z-score of 0.0747.

`O=c1[nH]c(-c2ccco2)nc2sc3c(c12)CCCC3`: the z-score is -0.273.

Compound `O=c1cc(N2CCOCC2)[nH]c(=O)n1-c1ccc(Br)cc1` displayed a z-score of 0.135. The result for `CCN(CC)S(=O)(=O)c1ccc2c(c1)nc(CCC(=O)OCc1c(C)noc1C)n2C` reads -0.209; that for `O=C(CSC1=Nc2ccccc2C2=NC(c3ccccc3)C(=O)N12)NC1CCCCC1` (stereo not drawn), -0.816; that for `CCOC(=O)C1CCCN(C(=O)c2sc3nc(C)nc(N4CCOCC4)c3c2C)C1` (stereo not drawn), -0.222. The result for `Cc1[nH]c(=O)c(C#N)c2c1CCCC2` reads -0.463. Take `COC(=O)c1c(NC(=O)C2C3CCC(O3)C2C(=O)O)sc2c1CCCCCC2` (stereo not drawn): the z-score is -0.215. As for `CCn1cnc2cc(NCc3nc4ccccc4n3C)ccc21`, the z-score was -0.256.

`CCC1CCCCN1C(=O)CSc1nnc(CNC(=O)COc2ccc(Cl)cc2)o1` (stereo not drawn) had a z-score of -0.269. The compound `CN1CCN(CCCNC(=O)c2cn(C)c3ccc(S(=O)(=O)N(C)C)cc3c2=O)CC1` gave a z-score of -0.0965.

Take `COCc1cc(C)n(CC(=O)N/N=C/c2ccc(-c3ccc(Cl)c(C(=O)O)c3)o2)c(=O)c1C#N`: the z-score was found to be 0.0238.

With `O=C(CSc1ccc2nnc(-c3ccncc3)n2n1)Nc1ccc2c(c1)OCCO2`, the z-score was -0.454. Turning to `CCCCc1nc(NCCNC(=O)c2ccccc2)c(C#N)c2c1CSC(C)(C)C2`, the z-score was -0.352.

Consider `C=CCn1nc([N+](=O)[O-])nc1Sc1cccc2cccnc12`, for which the z-score was found to be 1.44. Turning to `O=C(COC(=O)CNC(=O)c1ccc(Cl)cc1)Nc1ncc(C(F)(F)F)cc1Cl`, the z-score was -0.342.

Compound `COc1cc(NC(=O)COc2ccc(Cl)cc2)ccc1-c1cc2ccccc2oc1=O` had a z-score of 1.24. To `O=C(COC(=O)c1ccccc1O)Nc1cccnc1Cl` belongs -0.873; to `CCCc1cc(C(=O)NNC(=S)NCc2ccccc2)cs1`, -0.108.

In the case of `CCOc1cc(OCC)cc(C(=O)NC(=S)Nc2cccc(C(F)(F)F)c2)c1`, the z-score is 1.54. The result for `CCOc1ccccc1NC(=O)C(Sc1nnc2ccccn12)c1ccccc1` (stereo not drawn) reads -0.182; that for `O=C(CSc1ccccn1)Nc1nc2ccccc2s1`, 0.156. The result for `CCOC(=O)C1CCN(c2c(NCc3ccc(C(=O)NC(C)CC)cc3)c(=O)c2=O)CC1` (stereo not drawn) reads -0.414; that for `CS(=O)(=O)Nc1ccc(OCc2ccccc2)cc1`, -0.243.

`CC(=O)NC(C)C(=O)OCc1ccc(Cl)cc1Cl` (stereo not drawn): the z-score is 1.07.

For the compound `COC(=O)C(=O)Nc1nnc(COc2ccccc2)s1`, the z-score is -0.887. Take `CCCCC(=O)Nc1ccc(C(=O)Nc2ccc(S(=O)(=O)Nc3ccc(C)cc3)cc2)cc1`: the z-score is -0.117. The result for `O=C(Nc1cccc2ccccc12)c1ccccc1NS(=O)(=O)c1cccc2cccnc12` reads -0.0553. The result for `CC1(C)N([O-])C2=C(c3ccccc3C2=O)[N+](=O)C1(C)C` reads -0.167; that for `O=C(CN1C(=O)NC(Cc2ccccc2)(Cc2ccccc2)C1=O)NCC1CCCCC1`, 0.00942.
